Holding throughout (conditions): priming compound concentration 100 µM
In test [1] the test system is hAMSC donor 1. The test is described as follows: Hoechst total cell count ratio vs vehicle control; higher = more cells (less toxicity).
In test [2] the test system is hAMSC donor 2. The description is as above.
For test [3], the system named is hAMSC donor 1. The test is described as follows: transgenic luciferase activity (RLU/mg protein) fold change vs vehicle control (ratio); higher = more transgene expression.
In test [4] the test system is hAMSC donor 2. The description is as above.
Test [5] relates to hAMSC donor 1. The test is described as follows: transfection efficiency (EGFP+ cells / Hoechst count) fold change vs vehicle control (ratio); hAMSC are human adipose-derived mesenchymal stem cells given an EGFP-luciferase plasmid by lipofection; higher = enhanced transfection.
In test [6] the test system is hAMSC donor 2. The test is described as above.

Counter-ions that a name gives are not always drawn. ± gives the standard deviation of the averaged measurements. The list shows a part of the results.

This is an account of results in the supplement of paper PMC7238544.
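For Hoechst total cell count ratio vs vehicle control in this document: compound added 30 min before Lipofectamine 3000 lipoplex delivery, triplicate-well means expressed against DMSO vehicle control wells of the same 96-well plate.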
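For transfection efficiency (EGFP+ cells / Hoechst count) fold change vs vehicle control in this document: compounds added 30 min before Lipofectamine 3000 lipoplex transfection, triplicate means relative to DMSO vehicle wells on the same plate, luciferase RLU normalized to BCA total protein.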
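For transgenic luciferase activity (RLU/mg protein) fold change vs vehicle control in this document: compounds in DMSO added 30 min before Lipofectamine 3000 transfection of pEGFP-Luc in 96-well plates, values are means of triplicate wells over DMSO vehicle wells on the same plate.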

On to `CCC(=O)OCC(=O)[C@@]1(OC(=O)CC)[C@@H](C)C[C@H]2[C@@H]3CCC4=CC(=O)C=C[C@]4(C)[C@@]3(Cl)[C@@H](O)C[C@@]21C` [Beclomethasone dipropionate], for which the “Hoechst total cell count ratio” value in test [1] stood at 0.94 ± 0.048; in test [2] it was 0.871 ± 0.13. The transgenic luciferase activity in test [3] is 12.1 ± 5.2; in test [4], 6.83 ± 2.1. Also, the transfection efficiency in test [5] turned out to be 1.81 ± 0.61; in test [6] it was 1.95 ± 0.39.
`CC(CCCCC(=O)Nc1ccc(C(F)(F)F)cc1)NCCc1cnc[nH]1` (stereo unspecified) [HTMT dimaleate]: the “Hoechst total cell count ratio” value came to 1.68 ± 0.15 in test [1] and 1.16 ± 0.12 in test [2]. Besides, the transgenic luciferase activity in test [3] was 0.27 ± 0.23; in test [4] it was 0.441 ± 0.22. Besides, the transfection efficiency was 0.711 ± 0.045 in test [5] and 0.409 ± 0.049 in test [6].
Take `COc1cc2nc(N3CCN(C(=O)C4CCCO4)CC3)nc(N)c2cc1OC` (stereo unspecified) [Terazosin]: the “Hoechst total cell count ratio” value was 1.37 ± 0.14 in test [1] and 1.25 ± 0.26 in test [2]. In addition, the transgenic luciferase activity was determined as 1.01 ± 0.6 in test [3] and 1.17 ± 0.43 in test [4]. The transfection efficiency in test [5] was 0.75 ± 0.085; in test [6], 1.51 ± 0.064.
For `Oc1ncnc2[nH]ncc12` [Allopurinol], the figures for the “Hoechst total cell count ratio” value in test [1] and in test [2] were 1.29 ± 0.28 and 1.37 ± 0.31, respectively. Moreover, the figures for the transgenic luciferase activity in test [3] and in test [4] were 2.55 ± 2.3 and 0.643 ± 0.34, respectively. Further, the transfection efficiency is 1.18 ± 0.33 in test [5] and 1.61 ± 0.22 in test [6].
As to `CC1=C(/C=C/C(C)=C/C=C/C(C)=C\C(=O)O)C(C)(C)CCC1` [Isotretinoin], the “Hoechst total cell count ratio” value in test [1] turned out to be 2.09 ± 0.51; in test [2] it was 1.22 ± 0.13. For the same compound, the transgenic luciferase activity in test [3] was 0.13 ± 0.047; in test [4] it was 0.192 ± 0.035. Moreover, the transfection efficiency in test [5] stood at 0.18 ± 0.026; in test [6] it was 1.14 ± 0.36.
Consider `CC(=O)O[C@H]1C[C@@H]2CC[C@@H]3[C@H](CC[C@@]4(C)[C@H]3C[C@H]([N+]3(C)CCCCC3)[C@@H]4OC(C)=O)[C@@]2(C)C[C@@H]1N1CCCCC1` [Vecuronium bromide], for which the results for the “Hoechst total cell count ratio” value in test [1] and in test [2] were 0.912 ± 0.18 and 1.37 ± 0.15, respectively. Moreover, the figures for the transgenic luciferase activity in test [3] and in test [4] were 1.74 ± 0.98 and 0.901 ± 0.18, respectively. In addition, the transfection efficiency in test [5] is 1.39 ± 0.32; in test [6] it was 1 ± 0.059.
Regarding `C[C@@H](c1ncncc1F)[C@](O)(Cn1cncn1)c1ccc(F)cc1F` [Voriconazole], the “Hoechst total cell count ratio” value in test [1] stood at 1.35 ± 0.32; in test [2], 1.21 ± 0.33. The transgenic luciferase activity in test [3] was determined as 1.56 ± 1.3; in test [4], 0.727 ± 0.14. Moreover, the transfection efficiency is 0.95 ± 0.16 in test [5] and 1.16 ± 0.16 in test [6].
For `CC(C)NCC(O)COc1cccc2ccccc12` (stereo unspecified) [Propranolol hydrochloride], the figures for the “Hoechst total cell count ratio” value in test [1] and in test [2] were 0.948 ± 0.11 and 0.853 ± 0.11, respectively. Besides, the results for the transgenic luciferase activity in test [3] and in test [4] were 2.36 ± 2.4 and 0.342 ± 0.054, respectively. In addition, the transfection efficiency in test [5] amounted to 1.08 ± 0.13; in test [6] it was 0.957 ± 0.14.
For the compound `CN(C)CCc1c[nH]c2ccc(C[C@H]3COC(=O)N3)cc12` [Zolmitriptan], the entries for the “Hoechst total cell count ratio” value in test [1] and in test [2] were 1.47 ± 0.1 and 1.26 ± 0.26, respectively. In addition, the transgenic luciferase activity in test [3] turned out to be 2.92 ± 1.6; in test [4] it was 1.44 ± 0.21. The transfection efficiency in test [5] was 1.59 ± 0.14; in test [6] it was 1.33 ± 0.14.
Consider `Nc1cc(N2CCCCC2)nc(N)[n+]1[O-]` [Minoxidil], for which the “Hoechst total cell count ratio” value in test [1] stood at 1.1 ± 0.03; in test [2] it was 1.34 ± 0.19. Besides, the transgenic luciferase activity came to 0.365 ± 0.3 in test [3] and 0.722 ± 0.13 in test [4]. Also, the transfection efficiency came out at 1.01 ± 0.19 in test [5] and 0.804 ± 0.11 in test [6].
Take `CN(C)CCOC(c1ccccc1)c1ccccc1` [Diphenhydramine hydrochloride]: the “Hoechst total cell count ratio” value in test [1] was 1.09 ± 0.042; in test [2], 1.43 ± 0.2. The values for the transgenic luciferase activity in test [3] and in test [4] were 1.78 ± 0.47 and 0.734 ± 0.12, respectively. In addition, the results for the transfection efficiency in test [5] and in test [6] were 0.79 ± 0.33 and 0.724 ± 0.078, respectively.
